Data as given in article PMC4518479, “Rad51 Paralogs Remodel Pre-synaptic Rad51 Filaments to Stimulate Homologous Recombination” (Cell, 2015).
Results are given in words; binding and its absence hold for the method and conditions named. For some of these results: Binding seen in cells or lysates may run through a third protein. Some binding calls cover weakened binding; strength is not graded here. For some of these results: Sequences can lack the tags named with a protein. Each block holds one binder with its values, some of them ahead of it.

Legend:
[1] = target: T1, RAD-51 (purified, as RAD-51-ssDNA filament) (C. elegans) (UniProt Q95Q25); assay: native gel or EMSA; RAD-51 and RFS-1/RIP-1 on 60-mer ssDNA with ATP; resolved by native PAGE, or crosslinked with 0.25% glutaraldehyde and resolved in agarose gels; both purified
T1 sequence: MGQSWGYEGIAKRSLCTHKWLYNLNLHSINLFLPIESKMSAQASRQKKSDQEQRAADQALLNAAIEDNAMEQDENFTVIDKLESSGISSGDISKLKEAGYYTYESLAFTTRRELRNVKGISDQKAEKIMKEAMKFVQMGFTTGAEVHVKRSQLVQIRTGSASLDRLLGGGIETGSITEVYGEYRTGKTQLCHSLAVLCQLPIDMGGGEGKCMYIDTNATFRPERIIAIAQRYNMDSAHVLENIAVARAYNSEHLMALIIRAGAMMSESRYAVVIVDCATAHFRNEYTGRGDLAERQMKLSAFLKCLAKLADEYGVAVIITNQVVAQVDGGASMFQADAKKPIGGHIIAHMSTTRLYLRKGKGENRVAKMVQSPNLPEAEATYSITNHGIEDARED

[2] = target: T1, RAD-51 (purified, as RAD-51-ssDNA filament) (C. elegans); assay: immuno-gold electron microscopy; RAD-51, RFS-1/RIP-1 and linearized PhiX ssDNA (10 min), then anti-FLAG antibody conjugated to 20-nm gold particles (30 min), uranyl acetate stain; both purified
[3] = target: T1, RAD-51 (purified, as RAD-51-ssDNA filament) (C. elegans); assay: native gel or EMSA; immuno-shift: complexes of RAD-51 and RFS-1/RIP-1 on fluorescently labeled 60-mer ssDNA incubated with anti-FLAG antibody (5 min), agarose gel; both purified
[4] = target: T2, RIP-1 (RFS-1 interacting protein; yeast two-hybrid fusion) (C. elegans) (UniProt Q21621); assay: two-hybrid; reciprocal yeast two-hybrid; read-out beta-galactosidase expression and survival on 3-aminotriazole (3-AT) without histidine
T2 sequence: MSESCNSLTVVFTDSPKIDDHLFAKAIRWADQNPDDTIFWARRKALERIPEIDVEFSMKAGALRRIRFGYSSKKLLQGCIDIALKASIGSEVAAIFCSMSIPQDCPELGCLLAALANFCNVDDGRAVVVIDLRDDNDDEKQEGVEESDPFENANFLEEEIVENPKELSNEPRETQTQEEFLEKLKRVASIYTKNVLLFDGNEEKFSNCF

[5] = target: T3, FLAG-tagged RIP-1 co-expressed with RFS-1 in budding yeast (C. elegans) (UniProt Q21621); assay: co-IP; FLAG immunoprecipitation from budding yeast cells co-expressing RFS-1 and FLAG-tagged RIP-1; eluates stained with Instant Blue, Western blots
T3 sequence: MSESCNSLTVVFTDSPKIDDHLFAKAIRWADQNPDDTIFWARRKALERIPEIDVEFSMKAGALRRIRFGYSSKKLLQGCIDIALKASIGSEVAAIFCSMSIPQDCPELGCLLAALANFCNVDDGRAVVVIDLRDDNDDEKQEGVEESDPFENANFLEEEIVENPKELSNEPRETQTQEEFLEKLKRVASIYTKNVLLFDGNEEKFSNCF

[6] = target: T4, RFS-1 (yeast two-hybrid fusion) (C. elegans) (UniProt P34348); assay: two-hybrid; DB-RFS-1 / AD-RAD-51 two-hybrid strains with RIP-1 co-expressed on a Ura-selectable plasmid; beta-galactosidase and 3-AT read-out
T4 sequence: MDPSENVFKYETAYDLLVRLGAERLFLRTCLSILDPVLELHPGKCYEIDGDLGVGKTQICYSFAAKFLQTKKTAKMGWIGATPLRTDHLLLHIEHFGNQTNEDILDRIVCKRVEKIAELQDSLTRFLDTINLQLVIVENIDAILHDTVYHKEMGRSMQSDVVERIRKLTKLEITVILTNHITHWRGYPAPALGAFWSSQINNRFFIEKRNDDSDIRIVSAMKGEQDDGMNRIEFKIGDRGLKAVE

[7] = target: T5, C. elegans RIP-1 expressed in human 293T cells (C. elegans) (UniProt Q21621); assay: pull-down; GST pull-downs of C. elegans RFS-1 and RIP-1 expressed in human 293T cells
T5 sequence: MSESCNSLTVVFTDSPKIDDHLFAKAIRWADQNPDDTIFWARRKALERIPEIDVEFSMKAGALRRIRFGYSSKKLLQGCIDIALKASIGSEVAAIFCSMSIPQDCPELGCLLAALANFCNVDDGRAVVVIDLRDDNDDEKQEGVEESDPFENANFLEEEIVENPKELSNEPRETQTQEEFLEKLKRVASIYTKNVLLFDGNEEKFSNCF

[8] = target: T4, RFS-1 (yeast two-hybrid fusion) (C. elegans); assay: two-hybrid; reciprocal yeast two-hybrid; read-out beta-galactosidase expression and survival on 3-aminotriazole (3-AT) without histidine

binding [1]: binds
binding [2]: binds
binding [3]: binds
B1: RFS-1/RIP-1 complex (complex, UniProt P34348 1-245; Q21621 1-209)
chain 1: MDPSENVFKYETAYDLLVRLGAERLFLRTCLSILDPVLELHPGKCYEIDGDLGVGKTQICYSFAAKFLQTKKTAKMGWIGATPLRTDHLLLHIEHFGNQTNEDILDRIVCKRVEKIAELQDSLTRFLDTINLQLVIVENIDAILHDTVYHKEMGRSMQSDVVERIRKLTKLEITVILTNHITHWRGYPAPALGAFWSSQINNRFFIEKRNDDSDIRIVSAMKGEQDDGMNRIEFKIGDRGLKAVE
chain 2: MSESCNSLTVVFTDSPKIDDHLFAKAIRWADQNPDDTIFWARRKALERIPEIDVEFSMKAGALRRIRFGYSSKKLLQGCIDIALKASIGSEVAAIFCSMSIPQDCPELGCLLAALANFCNVDDGRAVVVIDLRDDNDDEKQEGVEESDPFENANFLEEEIVENPKELSNEPRETQTQEEFLEKLKRVASIYTKNVLLFDGNEEKFSNCF

binding [1]: binds
B2: RFS-1(E138A)/RIP-1 complex (complex, UniProt P34348 1-245; Q21621 1-209)
chain 1: MDPSENVFKYETAYDLLVRLGAERLFLRTCLSILDPVLELHPGKCYEIDGDLGVGKTQICYSFAAKFLQTKKTAKMGWIGATPLRTDHLLLHIEHFGNQTNEDILDRIVCKRVEKIAELQDSLTRFLDTINLQLVIVANIDAILHDTVYHKEMGRSMQSDVVERIRKLTKLEITVILTNHITHWRGYPAPALGAFWSSQINNRFFIEKRNDDSDIRIVSAMKGEQDDGMNRIEFKIGDRGLKAVE
chain 2: MSESCNSLTVVFTDSPKIDDHLFAKAIRWADQNPDDTIFWARRKALERIPEIDVEFSMKAGALRRIRFGYSSKKLLQGCIDIALKASIGSEVAAIFCSMSIPQDCPELGCLLAALANFCNVDDGRAVVVIDLRDDNDDEKQEGVEESDPFENANFLEEEIVENPKELSNEPRETQTQEEFLEKLKRVASIYTKNVLLFDGNEEKFSNCF

B3: RFS-1 V135E (yeast two-hybrid fusion) (protein, UniProt P34348 1-245)
chain: MDPSENVFKYETAYDLLVRLGAERLFLRTCLSILDPVLELHPGKCYEIDGDLGVGKTQICYSFAAKFLQTKKTAKMGWIGATPLRTDHLLLHIEHFGNQTNEDILDRIVCKRVEKIAELQDSLTRFLDTINLQLEIVENIDAILHDTVYHKEMGRSMQSDVVERIRKLTKLEITVILTNHITHWRGYPAPALGAFWSSQINNRFFIEKRNDDSDIRIVSAMKGEQDDGMNRIEFKIGDRGLKAVE
binding [4]: no binding

B4: RFS-1 E138A (yeast two-hybrid fusion) (protein, UniProt P34348 1-245)
chain: MDPSENVFKYETAYDLLVRLGAERLFLRTCLSILDPVLELHPGKCYEIDGDLGVGKTQICYSFAAKFLQTKKTAKMGWIGATPLRTDHLLLHIEHFGNQTNEDILDRIVCKRVEKIAELQDSLTRFLDTINLQLVIVANIDAILHDTVYHKEMGRSMQSDVVERIRKLTKLEITVILTNHITHWRGYPAPALGAFWSSQINNRFFIEKRNDDSDIRIVSAMKGEQDDGMNRIEFKIGDRGLKAVE
binding [4]: binds

binding [5]: binds
B5: RFS-1(E138A) co-expressed with RIP-1 in budding yeast (protein, UniProt P34348 1-245)
chain: MDPSENVFKYETAYDLLVRLGAERLFLRTCLSILDPVLELHPGKCYEIDGDLGVGKTQICYSFAAKFLQTKKTAKMGWIGATPLRTDHLLLHIEHFGNQTNEDILDRIVCKRVEKIAELQDSLTRFLDTINLQLVIVANIDAILHDTVYHKEMGRSMQSDVVERIRKLTKLEITVILTNHITHWRGYPAPALGAFWSSQINNRFFIEKRNDDSDIRIVSAMKGEQDDGMNRIEFKIGDRGLKAVE

binding [5]: binds
B6: RFS-1(K56A) co-expressed with RIP-1 in budding yeast (protein, UniProt P34348 1-245)
chain: MDPSENVFKYETAYDLLVRLGAERLFLRTCLSILDPVLELHPGKCYEIDGDLGVGATQICYSFAAKFLQTKKTAKMGWIGATPLRTDHLLLHIEHFGNQTNEDILDRIVCKRVEKIAELQDSLTRFLDTINLQLVIVENIDAILHDTVYHKEMGRSMQSDVVERIRKLTKLEITVILTNHITHWRGYPAPALGAFWSSQINNRFFIEKRNDDSDIRIVSAMKGEQDDGMNRIEFKIGDRGLKAVE

B7: RFS-1 K56A (yeast two-hybrid fusion) (protein, UniProt P34348 1-245)
chain: MDPSENVFKYETAYDLLVRLGAERLFLRTCLSILDPVLELHPGKCYEIDGDLGVGATQICYSFAAKFLQTKKTAKMGWIGATPLRTDHLLLHIEHFGNQTNEDILDRIVCKRVEKIAELQDSLTRFLDTINLQLVIVENIDAILHDTVYHKEMGRSMQSDVVERIRKLTKLEITVILTNHITHWRGYPAPALGAFWSSQINNRFFIEKRNDDSDIRIVSAMKGEQDDGMNRIEFKIGDRGLKAVE
binding [4]: binds

binding [1]: binds
B8: RFS-1(K56A)/RIP-1 complex (complex, UniProt P34348 1-245; Q21621 1-209)
chain 1: MDPSENVFKYETAYDLLVRLGAERLFLRTCLSILDPVLELHPGKCYEIDGDLGVGATQICYSFAAKFLQTKKTAKMGWIGATPLRTDHLLLHIEHFGNQTNEDILDRIVCKRVEKIAELQDSLTRFLDTINLQLVIVENIDAILHDTVYHKEMGRSMQSDVVERIRKLTKLEITVILTNHITHWRGYPAPALGAFWSSQINNRFFIEKRNDDSDIRIVSAMKGEQDDGMNRIEFKIGDRGLKAVE
chain 2: MSESCNSLTVVFTDSPKIDDHLFAKAIRWADQNPDDTIFWARRKALERIPEIDVEFSMKAGALRRIRFGYSSKKLLQGCIDIALKASIGSEVAAIFCSMSIPQDCPELGCLLAALANFCNVDDGRAVVVIDLRDDNDDEKQEGVEESDPFENANFLEEEIVENPKELSNEPRETQTQEEFLEKLKRVASIYTKNVLLFDGNEEKFSNCF

binding [6]: binds
B9: RIP-1 co-expressed on a Ura-selectable plasmid in the RFS-1/RAD-51 two-hybrid strains (protein, UniProt Q21621 1-209)
chain: MSESCNSLTVVFTDSPKIDDHLFAKAIRWADQNPDDTIFWARRKALERIPEIDVEFSMKAGALRRIRFGYSSKKLLQGCIDIALKASIGSEVAAIFCSMSIPQDCPELGCLLAALANFCNVDDGRAVVVIDLRDDNDDEKQEGVEESDPFENANFLEEEIVENPKELSNEPRETQTQEEFLEKLKRVASIYTKNVLLFDGNEEKFSNCF

binding [5]: binds
B10: RFS-1 co-expressed with RIP-1 in budding yeast (natural protein, C. elegans, UniProt P34348 1-245, looked up)
chain: MDPSENVFKYETAYDLLVRLGAERLFLRTCLSILDPVLELHPGKCYEIDGDLGVGKTQICYSFAAKFLQTKKTAKMGWIGATPLRTDHLLLHIEHFGNQTNEDILDRIVCKRVEKIAELQDSLTRFLDTINLQLVIVENIDAILHDTVYHKEMGRSMQSDVVERIRKLTKLEITVILTNHITHWRGYPAPALGAFWSSQINNRFFIEKRNDDSDIRIVSAMKGEQDDGMNRIEFKIGDRGLKAVE
notes: RFS-1 of C. elegans; see Supplemental Experimental Procedures; also called recombinant RFS-1; source: budding yeast, co-expressed with RIP-1, in extract; co-purified by FLAG immunoprecipitation

binding [7]: binds
B11: C. elegans RFS-1 expressed in human 293T cells (protein, UniProt P34348 1-245)
chain: MDPSENVFKYETAYDLLVRLGAERLFLRTCLSILDPVLELHPGKCYEIDGDLGVGKTQICYSFAAKFLQTKKTAKMGWIGATPLRTDHLLLHIEHFGNQTNEDILDRIVCKRVEKIAELQDSLTRFLDTINLQLVIVENIDAILHDTVYHKEMGRSMQSDVVERIRKLTKLEITVILTNHITHWRGYPAPALGAFWSSQINNRFFIEKRNDDSDIRIVSAMKGEQDDGMNRIEFKIGDRGLKAVE

binding [6]: binds
B12: RAD-51 (yeast two-hybrid fusion) (protein, UniProt Q95Q25 1-395)
chain: MGQSWGYEGIAKRSLCTHKWLYNLNLHSINLFLPIESKMSAQASRQKKSDQEQRAADQALLNAAIEDNAMEQDENFTVIDKLESSGISSGDISKLKEAGYYTYESLAFTTRRELRNVKGISDQKAEKIMKEAMKFVQMGFTTGAEVHVKRSQLVQIRTGSASLDRLLGGGIETGSITEVYGEYRTGKTQLCHSLAVLCQLPIDMGGGEGKCMYIDTNATFRPERIIAIAQRYNMDSAHVLENIAVARAYNSEHLMALIIRAGAMMSESRYAVVIVDCATAHFRNEYTGRGDLAERQMKLSAFLKCLAKLADEYGVAVIITNQVVAQVDGGASMFQADAKKPIGGHIIAHMSTTRLYLRKGKGENRVAKMVQSPNLPEAEATYSITNHGIEDARED
binding [4]: no binding
binding [8]: binds
